The source of these data is PMC12820563, “FoxP3 forms a head-to-head dimer in vivo and stabilizes its multimerization on adjacent microsatellites”.

This is one part of the list.

The target of the assay is T1, MBP-FoxP1dN (Mus musculus, UniProt P58462 326-579).
T1 sequence: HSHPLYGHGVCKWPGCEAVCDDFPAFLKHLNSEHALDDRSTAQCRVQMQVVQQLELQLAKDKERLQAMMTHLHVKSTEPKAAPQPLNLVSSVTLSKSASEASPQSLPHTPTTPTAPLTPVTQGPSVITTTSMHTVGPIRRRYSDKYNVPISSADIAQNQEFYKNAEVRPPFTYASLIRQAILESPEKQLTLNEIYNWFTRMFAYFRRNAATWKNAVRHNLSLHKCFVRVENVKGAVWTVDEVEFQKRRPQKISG
As to the kind of experiment: PD-seq (MBP pull-down with sequencing); 20 mM Tris-HCl pH 7.5, 100 mM NaCl, 1.5 mM MgCl2, 0.4 uM protein, 0.1 uM dsDNA library, 30 min, room temperature, amylose pull-down; high values mean tight binding. As to conditions: protein: recombinant; tags: His6-MBP; chain copies: 2; dsDNA, one strand shown. In a few lines:
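A fragment of mouse FoxP3 or FoxP1 without its N-terminus, carrying a His6-MBP tag and produced in E. coli, was combined at 0.4 µM with a 0.1 µM degenerate double-stranded DNA library filled in with Klenow. The mixture sat for 30 min at room temperature in Tris pH 7.5 buffer containing NaCl and MgCl2. Protein–DNA complexes were captured on amylose resin, washed three times, and the DNA was freed with proteinase K, barcoded by PCR and sequenced on Illumina. Binding is expressed as reads-per-million enrichment of pull-down over input, with replicates pooled.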
On to “GATGATTGTTCTCCCAGCTGATGAATTGTAGACCTCGAGTAAACAAATTTTCCTAATCTTTCTGTTCAAGCGCCATCTAC”, for which the binding signal is 0.829 RPM ratio (pull-down/input).

Regarding “GATGATTGTTCTCCCAGCTGATGAATTACATGGATCGAGTAAACAAATTTTCCTAATCTTTCTGTTCAAGCGCCATCTAC”, the binding signal was 1 RPM ratio (pull-down/input).

For the sequence “GATGATTGTTCTCCCAGCTGATGAATTATATCCTTCGAGTAAACAAATTTTCCTAATCTTTCTGTTCAAGCGCCATCTAC”, the binding signal was 0.96 RPM ratio (pull-down/input).

For the sequence “GATGATTGTTCTCCCAGCTGATGAATTCATAAGGTCGAGTAAACAAATTTTCCTAATCTTTCTGTTCAAGCGCCATCTAC”, the binding signal was 0.78 RPM ratio (pull-down/input).

As for “GATGATTGTTCTCCCAGCTGATGAATTTTTCCCCTCGAGTAAACAAATTTTCCTAATCTTTCTGTTCAAGCGCCATCTAC”, the binding signal was 0.9 RPM ratio (pull-down/input).

As for “GATGATTGTTCTCCCAGCTGATGAATTACTCTAGTCGAGTAAACAAATTTTCCTAATCTTTCTGTTCAAGCGCCATCTAC”, the binding signal is 1 RPM ratio (pull-down/input).

“GATGATTGTTCTCCCAGCTGATGAATTATTTTACTCGAGTAAACAAATTTTCCTAATCTTTCTGTTCAAGCGCCATCTAC”: the binding signal is 1.2 RPM ratio (pull-down/input).

Take “GATGATTGTTCTCCCAGCTGATGAATTTCACGTCTCGAGTAAACAAATTTTCCTAATCTTTCTGTTCAAGCGCCATCTAC”: the binding signal was 0.828 RPM ratio (pull-down/input).

On to “GATGATTGTTCTCCCAGCTGATGAATTAGAATCTTCGAGTAAACAAATTTTCCTAATCTTTCTGTTCAAGCGCCATCTAC”, for which the binding signal was 0.886 RPM ratio (pull-down/input).

Regarding “GATGATTGTTCTCCCAGCTGATGAATTGCTTTTGTCGAGTAAACAAATTTTCCTAATCTTTCTGTTCAAGCGCCATCTAC”, the binding signal was 1.27 RPM ratio (pull-down/input).

Consider “GATGATTGTTCTCCCAGCTGATGAATTACGACCATCGAGTAAACAAATTTTCCTAATCTTTCTGTTCAAGCGCCATCTAC”, for which the binding signal is 1.04 RPM ratio (pull-down/input).

On to “GATGATTGTTCTCCCAGCTGATGAATTCATCCTGTCGAGTAAACAAATTTTCCTAATCTTTCTGTTCAAGCGCCATCTAC”, for which the binding signal was 0.829 RPM ratio (pull-down/input).

Consider “GATGATTGTTCTCCCAGCTGATGAATTCTTAACGTCGAGTAAACAAATTTTCCTAATCTTTCTGTTCAAGCGCCATCTAC”, for which the binding signal was 0.997 RPM ratio (pull-down/input).

On to “GATGATTGTTCTCCCAGCTGATGAATTGTGTGGATCGAGTAAACAAATTTTCCTAATCTTTCTGTTCAAGCGCCATCTAC”, for which the binding signal is 1.08 RPM ratio (pull-down/input).

In the case of “GATGATTGTTCTCCCAGCTGATGAATTCATTCTATCGAGTAAACAAATTTTCCTAATCTTTCTGTTCAAGCGCCATCTAC”, the binding signal was 0.85 RPM ratio (pull-down/input).

Turning to “GATGATTGTTCTCCCAGCTGATGAATTTAAAGATTCGAGTAAACAAATTTTCCTAATCTTTCTGTTCAAGCGCCATCTAC”, the binding signal is 0.872 RPM ratio (pull-down/input).

For the sequence “GATGATTGTTCTCCCAGCTGATGAATTTTTGTTATCGAGTAAACAAATTTTCCTAATCTTTCTGTTCAAGCGCCATCTAC”, the binding signal is 2.35 RPM ratio (pull-down/input).

As to “GATGATTGTTCTCCCAGCTGATGAATTACTAAGTTCGAGTAAACAAATTTTCCTAATCTTTCTGTTCAAGCGCCATCTAC”, the binding signal is 1.13 RPM ratio (pull-down/input).

Regarding “GATGATTGTTCTCCCAGCTGATGAATTACCAGGCTCGAGTAAACAAATTTTCCTAATCTTTCTGTTCAAGCGCCATCTAC”, the binding signal was 0.839 RPM ratio (pull-down/input).

In the case of “GATGATTGTTCTCCCAGCTGATGAATTATCGGCTTCGAGTAAACAAATTTTCCTAATCTTTCTGTTCAAGCGCCATCTAC”, the binding signal is 0.859 RPM ratio (pull-down/input).

As for “GATGATTGTTCTCCCAGCTGATGAATTGCCTTGCTCGAGTAAACAAATTTTCCTAATCTTTCTGTTCAAGCGCCATCTAC”, the binding signal was 0.856 RPM ratio (pull-down/input).

For the sequence “GATGATTGTTCTCCCAGCTGATGAATTCTAACTCTCGAGTAAACAAATTTTCCTAATCTTTCTGTTCAAGCGCCATCTAC”, the binding signal was 0.838 RPM ratio (pull-down/input).

In the case of “GATGATTGTTCTCCCAGCTGATGAATTGGACGAATCGAGTAAACAAATTTTCCTAATCTTTCTGTTCAAGCGCCATCTAC”, the binding signal was 0.886 RPM ratio (pull-down/input).

With “GATGATTGTTCTCCCAGCTGATGAATTGAGCAATTCGAGTAAACAAATTTTCCTAATCTTTCTGTTCAAGCGCCATCTAC”, the binding signal was 0.947 RPM ratio (pull-down/input).

As to “GATGATTGTTCTCCCAGCTGATGAATTAAAGATATCGAGTAAACAAATTTTCCTAATCTTTCTGTTCAAGCGCCATCTAC”, the binding signal was 1.01 RPM ratio (pull-down/input).

Turning to “GATGATTGTTCTCCCAGCTGATGAATTTGTGTTGTCGAGTAAACAAATTTTCCTAATCTTTCTGTTCAAGCGCCATCTAC”, the binding signal was 2.64 RPM ratio (pull-down/input).

Consider “GATGATTGTTCTCCCAGCTGATGAATTACGATATTCGAGTAAACAAATTTTCCTAATCTTTCTGTTCAAGCGCCATCTAC”, for which the binding signal was 1.07 RPM ratio (pull-down/input).

Take “GATGATTGTTCTCCCAGCTGATGAATTCTCAGACTCGAGTAAACAAATTTTCCTAATCTTTCTGTTCAAGCGCCATCTAC”: the binding signal was 0.778 RPM ratio (pull-down/input).

Take “GATGATTGTTCTCCCAGCTGATGAATTAAATCACTCGAGTAAACAAATTTTCCTAATCTTTCTGTTCAAGCGCCATCTAC”: the binding signal is 1.09 RPM ratio (pull-down/input).

Turning to “GATGATTGTTCTCCCAGCTGATGAATTAGAGAGGTCGAGTAAACAAATTTTCCTAATCTTTCTGTTCAAGCGCCATCTAC”, the binding signal was 0.771 RPM ratio (pull-down/input).

Take “GATGATTGTTCTCCCAGCTGATGAATTCCTAGGCTCGAGTAAACAAATTTTCCTAATCTTTCTGTTCAAGCGCCATCTAC”: the binding signal was 0.749 RPM ratio (pull-down/input).

As for “GATGATTGTTCTCCCAGCTGATGAATTAGGCGATTCGAGTAAACAAATTTTCCTAATCTTTCTGTTCAAGCGCCATCTAC”, the binding signal is 0.863 RPM ratio (pull-down/input).
